Numbering of substitutions follows the chain as printed; changes in the protein carry UniProt numbers. The list shows a part of the results.
T1: RBFOX1 RRM RbFoxmut (Fox-RRM*) (Homo sapiens, UniProt Q9NWB1 109-208, R118D;E147R;N151S;E152T)
T1 sequence: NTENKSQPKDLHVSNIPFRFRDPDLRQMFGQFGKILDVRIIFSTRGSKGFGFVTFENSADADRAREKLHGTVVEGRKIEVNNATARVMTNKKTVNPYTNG

B1: AGAAGAC (DNA:RNA)
RNA: GGGAGACCGGAAUUCAGAUUGUCCAGAAGACUUAAAUCCCGUCGUAGCCACCA
DNA 1: CAATCTGAATTCCGGTCTCCC
DNA 2: TGGTGGCTACGACGGGATT
B2: ACCGACG (DNA:RNA)
RNA: B1 RNA with G26C, A27C, A28G, G29A, A30C, C31G
DNA 1: CAATCTGAATTCCGGTCTCCC
DNA 2: TGGTGGCTACGACGGGATT
B3: UGUACCU (DNA:RNA)
RNA: B1 RNA with A25U, A27U, G29C, A30C, C31U
DNA 1: CAATCTGAATTCCGGTCTCCC
DNA 2: TGGTGGCTACGACGGGATT
B4: UCUCGGG (DNA:RNA)
RNA: B1 RNA with A25U, G26C, A27U, A28C, A30G, C31G
DNA 1: CAATCTGAATTCCGGTCTCCC
DNA 2: TGGTGGCTACGACGGGATT
B5: GCUCAUG (DNA:RNA)
RNA: GGGAGACCGGAAUUCAGAUUGUCCGCUCAUGUUAAAUCCCGUCGUAGCCACCA
DNA 1: CAATCTGAATTCCGGTCTCCC
DNA 2: TGGTGGCTACGACGGGATT
B6: UAAAGGC (DNA:RNA)
RNA: B1 RNA with A25U, G26A, A30G
DNA 1: CAATCTGAATTCCGGTCTCCC
DNA 2: TGGTGGCTACGACGGGATT
B7: AAUGUUG (DNA:RNA)
RNA: B5 RNA with G25A, C26A, C28G, A29U
DNA 1: CAATCTGAATTCCGGTCTCCC
DNA 2: TGGTGGCTACGACGGGATT
B8: GAGUUGU (DNA:RNA)
RNA: B5 RNA with C26A, U27G, C28U, A29U, U30G, G31U
DNA 1: CAATCTGAATTCCGGTCTCCC
DNA 2: TGGTGGCTACGACGGGATT
B9: GUACGUA (DNA:RNA)
RNA: B5 RNA with C26U, U27A, A29G, G31A
DNA 1: CAATCTGAATTCCGGTCTCCC
DNA 2: TGGTGGCTACGACGGGATT
B10: UUGGUCU (DNA:RNA)
RNA: GGGAGACCGGAAUUCAGAUUGUCCUUGGUCUUUAAAUCCCGUCGUAGCCACCA
DNA 1: CAATCTGAATTCCGGTCTCCC
DNA 2: TGGTGGCTACGACGGGATT
B11: CCUGUAG (DNA:RNA)
RNA: B5 RNA with G25C, C28G, A29U, U30A
DNA 1: CAATCTGAATTCCGGTCTCCC
DNA 2: TGGTGGCTACGACGGGATT
B12: UCAGAGC (DNA:RNA)
RNA: B1 RNA with A25U, G26C, A28G, G29A, A30G
DNA 1: CAATCTGAATTCCGGTCTCCC
DNA 2: TGGTGGCTACGACGGGATT
B13: GAAUGGU (DNA:RNA)
RNA: B1 RNA with A25G, G26A, A28U, A30G, C31U
DNA 1: CAATCTGAATTCCGGTCTCCC
DNA 2: TGGTGGCTACGACGGGATT
B14: AGCAGCG (DNA:RNA)
RNA: B1 RNA with A27C, A30C, C31G
DNA 1: CAATCTGAATTCCGGTCTCCC
DNA 2: TGGTGGCTACGACGGGATT
B15: UCACACA (DNA:RNA)
RNA: B5 RNA with G25U, U27A, U30C, G31A
DNA 1: CAATCTGAATTCCGGTCTCCC
DNA 2: TGGTGGCTACGACGGGATT
B16: GACAGGC (DNA:RNA)
RNA: B1 RNA with A25G, G26A, A27C, A30G
DNA 1: CAATCTGAATTCCGGTCTCCC
DNA 2: TGGTGGCTACGACGGGATT
B17: AAGAGUC (DNA:RNA)
RNA: B1 RNA with G26A, A27G, A30U
DNA 1: CAATCTGAATTCCGGTCTCCC
DNA 2: TGGTGGCTACGACGGGATT
B18: UUAAUCG (DNA:RNA)
RNA: B10 RNA with G27A, G28A, U31G
DNA 1: CAATCTGAATTCCGGTCTCCC
DNA 2: TGGTGGCTACGACGGGATT
B19: CAAGGAA (DNA:RNA)
RNA: B1 RNA with A25C, G26A, A28G, C31A
DNA 1: CAATCTGAATTCCGGTCTCCC
DNA 2: TGGTGGCTACGACGGGATT
B20: ACAGCAC (DNA:RNA)
RNA: B1 RNA with G26C, A28G, G29C
DNA 1: CAATCTGAATTCCGGTCTCCC
DNA 2: TGGTGGCTACGACGGGATT
B21: AUAGGGU (DNA:RNA)
RNA: B1 RNA with G26U, A28G, A30G, C31U
DNA 1: CAATCTGAATTCCGGTCTCCC
DNA 2: TGGTGGCTACGACGGGATT
B22: CUACGUC (DNA:RNA)
RNA: B1 RNA with A25C, G26U, A28C, A30U
DNA 1: CAATCTGAATTCCGGTCTCCC
DNA 2: TGGTGGCTACGACGGGATT
B23: GGUCACU (DNA:RNA)
RNA: B5 RNA with C26G, U30C, G31U
DNA 1: CAATCTGAATTCCGGTCTCCC
DNA 2: TGGTGGCTACGACGGGATT
B24: CGCGCGU (DNA:RNA)
RNA: B10 RNA with U25C, U26G, G27C, U29C, C30G
DNA 1: CAATCTGAATTCCGGTCTCCC
DNA 2: TGGTGGCTACGACGGGATT
B25: CCGUUUG (DNA:RNA)
RNA: B5 RNA with G25C, U27G, C28U, A29U
DNA 1: CAATCTGAATTCCGGTCTCCC
DNA 2: TGGTGGCTACGACGGGATT
B26: UCAGGGU (DNA:RNA)
RNA: B10 RNA with U26C, G27A, U29G, C30G
DNA 1: CAATCTGAATTCCGGTCTCCC
DNA 2: TGGTGGCTACGACGGGATT
B27: CUAAUGU (DNA:RNA)
RNA: B10 RNA with U25C, G27A, G28A, C30G
DNA 1: CAATCTGAATTCCGGTCTCCC
DNA 2: TGGTGGCTACGACGGGATT
B28: CGAAAAA (DNA:RNA)
RNA: B1 RNA with A25C, G29A, C31A
DNA 1: CAATCTGAATTCCGGTCTCCC
DNA 2: TGGTGGCTACGACGGGATT
B29: UGGGAUG (DNA:RNA)
RNA: B5 RNA with G25U, C26G, U27G, C28G
DNA 1: CAATCTGAATTCCGGTCTCCC
DNA 2: TGGTGGCTACGACGGGATT
B30: AAACUAA (DNA:RNA)
RNA: B1 RNA with G26A, A28C, G29U, C31A
DNA 1: CAATCTGAATTCCGGTCTCCC
DNA 2: TGGTGGCTACGACGGGATT
B31: UUUGUCA (DNA:RNA)
RNA: B10 RNA with G27U, U31A
DNA 1: CAATCTGAATTCCGGTCTCCC
DNA 2: TGGTGGCTACGACGGGATT

biological target: T1, RBFOX1 RRM RbFoxmut (Fox-RRM*); test: EMSA; HiTS-Eq, 1 nM pool, 10 min; buffer printed only for the single-RNA assays: 10 mM Tris pH 7.5, 150 mM NaCl, 3.4 mM EDTA, 0.001% NP-40, 30 C; conditions: tags: His6 N-terminal (pET28a); label: 5' 32P
How it was run: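 A pool of RNA with 7 randomized nucleotides, 5′-radiolabelled and with DNA-annealed flanks, was equilibrated at 1 nM for 10 min in 50 µL with purified RbFox RRM, wild type or mutant, across increasing protein concentrations. Free RNA was separated by 8% native PAGE, excised, reverse-transcribed, barcoded by PCR and sequenced. Relative association constants were obtained from read-count changes of each RNA species versus the control reaction and normalised to the cognate motif.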

Row | Binder | binding signal
1 | B1 | 0.0963 KA relative to UGCAUGU
2 | B2 | 0.0909 KA relative to UGCAUGU
3 | B3 | 0.104 KA relative to UGCAUGU
4 | B4 | 0.0745 KA relative to UGCAUGU
5 | B5 | 0.112 KA relative to UGCAUGU
6 | B6 | 0.0757 KA relative to UGCAUGU
7 | B7 | 0.143 KA relative to UGCAUGU
8 | B8 | 0.138 KA relative to UGCAUGU
9 | B9 | 0.228 KA relative to UGCAUGU
10 | B10 | 0.111 KA relative to UGCAUGU
11 | B11 | 0.166 KA relative to UGCAUGU
12 | B12 | 0.0985 KA relative to UGCAUGU
13 | B13 | 0.748 KA relative to UGCAUGU
14 | B14 | 0.113 KA relative to UGCAUGU
15 | B15 | 0.0876 KA relative to UGCAUGU
16 | B16 | 0.0743 KA relative to UGCAUGU

Row | Binder | binding signal
17 | B17 | 0.0893 KA relative to UGCAUGU
18 | B18 | 0.0651 KA relative to UGCAUGU
19 | B19 | 0.0865 KA relative to UGCAUGU
20 | B20 | 0.0948 KA relative to UGCAUGU
21 | B21 | 0.117 KA relative to UGCAUGU
22 | B22 | 0.0942 KA relative to UGCAUGU
23 | B23 | 0.0558 KA relative to UGCAUGU
24 | B24 | 0.135 KA relative to UGCAUGU
25 | B25 | 0.323 KA relative to UGCAUGU
26 | B26 | 0.0995 KA relative to UGCAUGU
27 | B27 | 0.101 KA relative to UGCAUGU
28 | B28 | 0.0624 KA relative to UGCAUGU
29 | B29 | 0.691 KA relative to UGCAUGU
30 | B30 | 0.0668 KA relative to UGCAUGU
31 | B31 | 0.13 KA relative to UGCAUGU
